Laboratory results taken from the supplement of paper PMC12217912.
Some of the results follow. The full chains were built here from the parent and the listed change. Values near 0.05 are background.

B1: TEV protease; numbered along this chain (parent)
chain: MGESLFKGPRDYNPISSSICHLTNESDGHTTSLYGIGFGPFIITNKHLFRRNNGTLVVQSLHGVFKVKDTTTLQQHLVDGRDMIIIRMPKDFPPFPQKLKFREPQREERICLVTTNFQTKSMSSMVSDTSCTFPSGDGIFWKHWIQTKDGQCGSPLVSTRDGFIVGIHSASNFTNTNNYFTSVPKNFMELLTNQEAQQWVSGWRLNADSVLWGGHKVFMVKPEEPFQPVKEATQL

Variants of: B1
Assay: raw area under fraction-flipped curve 0-4 h after induction (AUC4h, not background-subtracted), DNA-recorder readout of cleavage of the substrate (dimensionless); higher = more cleavage of the substrate by the protease variant
Details: temperature: 34 °C; time window: 0-4 h after rhamnose induction
Method: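 In vivo DNA recorder in E. coli TOP10(DE3) ΔrhaA at 34 °C. Each TEVp single-site mutant (parent TEVp 0) is paired with a single-site variant of the 7-mer TEVs (canonical ENLYFQ|S). The substrate sits between flexible linkers in a Bxb1-sfGFP-TEVs-SsrA fusion, so cleavage stabilises Bxb1 and speeds flipping of a recombination array, read by NGS. The value is the raw area under the fraction-flipped curve over 0-4 h after rhamnose induction (AUC4h), with ≥20 reads per time point. It is not background-subtracted; inactive controls average about 0.047.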
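Note: Bxb1 expression induced with 0.2% (w/v) L-rhamnose at OD600 near 0.5, cultures sampled hourly, flipped fraction per protease–substrate barcode pair counted by paired-end Illumina sequencing.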

Variant | area with substrate CNLYFQS | area with substrate HNLYFQS | area with substrate INLYFQS | area with substrate KNLYFQS | area with substrate LNLYFQS | area with substrate MNLYFQS | area with substrate NNLYFQS | area with substrate PNLYFQS | area with substrate SNLYFQS | area with substrate TNLYFQS | area with substrate VNLYFQS | area with substrate WNLYFQS | area with substrate YNLYFQS | area with substrate FNLYFQS | area with substrate GNLYFQS | area with substrate QNLYFQS | area with substrate RNLYFQS
MGESLFKGPRDYNPISSSICHLTNESDGHTTSLYGIGFGPHIITNKHLFRRNNGTLVVQSLHGVFKVKDTTTLQQHLVDGRDMIIIRMPKDFPPFPQKLKFREPQREERICLVTTNFQTKSMSSMVSDTSCTFPSGDGIFWKHWIQTKDGQCGSPLVSTRDGFIVGIHSASNFTNTNNYFTSVPKNFMELLTNQEAQQWVSGWRLNADSVLWGGHKVFMVKPEEPFQPVKEATQL [F41H] | 0.0723 | 0.0627 | 0.0609 | 0.0676 | 0.0436 | 0.0773 | 0.0592 | 0.0598 | 0.0621 | 0.0628 | 0.0774 | 0.0564 | 0.0548 |  |  |  | 
MGESLFKGPRDYNPISSSICHLTNESDGHTTSLYGIGFGPFIITNKHLFRRNNGTLVVQSLHGVFKVKDTTTDQQHLVDGRDMIIIRMPKDFPPFPQKLKFREPQREERICLVTTNFQTKSMSSMVSDTSCTFPSGDGIFWKHWIQTKDGQCGSPLVSTRDGFIVGIHSASNFTNTNNYFTSVPKNFMELLTNQEAQQWVSGWRLNADSVLWGGHKVFMVKPEEPFQPVKEATQL [L73D] | 0.0785 | 0.0606 |  | 0.0307 | 0.0507 |  |  |  | 0.0711 | 0.0523 | 0.0585 | 0.0334 | 0.05 | 0.0522 | 0.0554 |  | 
MGESLFKGPRDYNPISSSICHLTNESDGHTTSLYGIGFGPFIITNKHLFRRNNGTLVVQSLHGVFKVKDTTTHQQHLVDGRDMIIIRMPKDFPPFPQKLKFREPQREERICLVTTNFQTKSMSSMVSDTSCTFPSGDGIFWKHWIQTKDGQCGSPLVSTRDGFIVGIHSASNFTNTNNYFTSVPKNFMELLTNQEAQQWVSGWRLNADSVLWGGHKVFMVKPEEPFQPVKEATQL [L73H] | 0.0642 |  |  |  |  | 0.0526 |  | 0.0537 | 0.0524 | 0.0353 |  | 0.0471 | 0.054 |  | 0.0592 |  | 
MGESLFKGPRDYNPISSSICHQTNESDGHTTSLYGIGFGPFIITNKHLFRRNNGTLVVQSLHGVFKVKDTTTLQQHLVDGRDMIIIRMPKDFPPFPQKLKFREPQREERICLVTTNFQTKSMSSMVSDTSCTFPSGDGIFWKHWIQTKDGQCGSPLVSTRDGFIVGIHSASNFTNTNNYFTSVPKNFMELLTNQEAQQWVSGWRLNADSVLWGGHKVFMVKPEEPFQPVKEATQL [L22Q] | 0.0485 | 0.03 | 0.0461 | 0.0408 |  |  | 0.0437 | 0.0436 |  | 0.0488 | 0.0795 | 0.0544 | 0.0471 | 0.0507 |  |  | 
MGESLFKGPRDYNPISSSICHLTNESDGHTTSLYGIGFGPFIITNKHLFRRNNGTLVVQSLHGVFKVKDTTTLQQHLVDGRDMIIICMPKDFPPFPQKLKFREPQREERICLVTTNFQTKSMSSMVSDTSCTFPSGDGIFWKHWIQTKDGQCGSPLVSTRDGFIVGIHSASNFTNTNNYFTSVPKNFMELLTNQEAQQWVSGWRLNADSVLWGGHKVFMVKPEEPFQPVKEATQL [R87C] | 0.0668 | 0.0692 |  |  |  | 0.0624 |  |  | 0.0639 | 0.0631 |  |  | 0.0702 | 0.0612 |  |  | 
MGESLFKGPRDYNPISSSICHLTNESDGHTTSLYGIGFGPFIITNKHLFRRNNGTLVVQSLHGVFKVKDTTTLQQHLVDGRDMIIIRMPKKFPPFPQKLKFREPQREERICLVTTNFQTKSMSSMVSDTSCTFPSGDGIFWKHWIQTKDGQCGSPLVSTRDGFIVGIHSASNFTNTNNYFTSVPKNFMELLTNQEAQQWVSGWRLNADSVLWGGHKVFMVKPEEPFQPVKEATQL [D91K] | 0.0717 |  |  |  | 0.0642 |  |  |  | 0.0691 | 0.0623 |  |  |  | 0.0639 |  | 0.0988 | 
MGESLFKGPRDYNPISSSICHLTNESDGHTTSLYGIGFGPFIITNKHLFRRNNGTLVVQSLHGVFKVKDTTTLQQHLVDGRDMIIIRMPKDFPPIPQKLKFREPQREERICLVTTNFQTKSMSSMVSDTSCTFPSGDGIFWKHWIQTKDGQCGSPLVSTRDGFIVGIHSASNFTNTNNYFTSVPKNFMELLTNQEAQQWVSGWRLNADSVLWGGHKVFMVKPEEPFQPVKEATQL [F95I] | 0.0667 | 0.0611 | 0.0846 | 0.0626 | 0.0582 | 0.0456 |  |  | 0.0578 |  | 0.0701 | 0.0455 |  | 0.0492 |  |  | 
MGESLFKGPRDYNPISSSICHLTNESDGHTTSLYGIGFGPFIITNKHLFRRNNGTLVVQSLHGVFKVKDTTTLQQHLVDGRDMIIIRMPKDFPPFPQKLKFREPQREERICLVTTNFQTKSMSSMVSDTSCTFPSGDGIFWKHWIQTKDGQCGSPLVSTRMGFIVGIHSASNFTNTNNYFTSVPKNFMELLTNQEAQQWVSGWRLNADSVLWGGHKVFMVKPEEPFQPVKEATQL [D161M] | 0.0466 | 0.068 | 0.0507 | 0.0414 |  |  |  | 0.0479 |  |  |  | 0.0547 | 0.0295 |  |  |  | 
MGESLFKGPRDYNPISSSICHLTNESDGHTTSLYGIGFGPFIITNKHLFRRNNGTLVVQSLHGVFKVKDTTTLQQHLVDGRDMIIIRMPKDFPPFPQKLKFREPQREERICLVTTNFQTKSMSSMVSDTSCTFPSGDGIFWKHWIQTKDGQCGSPLVSTRDGFIVGIHSASNFTNTNNYFTSVPKNFMELLTNQEAQQWVSGWRLYADSVLWGGHKVFMVKPEEPFQPVKEATQL [N206Y] | 0.0778 | 0.0546 |  | 0.0664 |  |  |  |  | 0.0372 | 0.0762 |  | 0.0619 |  | 0.0686 |  |  | 0.0725
MGESLFKGPRDYNPISSSICHLTNESDGHTTSLYGIGFGPFIITNKHLFRRNNGTLVVQSLHGVFKVKDTTTLQQHLRDGRDMIIIRMPKDFPPFPQKLKFREPQREERICLVTTNFQTKSMSSMVSDTSCTFPSGDGIFWKHWIQTKDGQCGSPLVSTRDGFIVGIHSASNFTNTNNYFTSVPKNFMELLTNQEAQQWVSGWRLNADSVLWGGHKVFMVKPEEPFQPVKEATQL [V78R] | 0.0537 | 0.0497 |  |  |  |  | 0.0587 | 0.0577 | 0.0458 | 0.054 | 0.0571 |  |  |  | 0.0634 |  | 
